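1) Cells in 96-well plates. 2) Compound, 48 h, 5 concentrations. 3) Linear interpolation between surrounding doses. 4) Unreached endpoint = highest concentration. GI50: concentration for 50% inhibition of growth. TGI denotes the concentration required for complete inhibition of growth.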
System: NCI-H322M lung
Test: NCI-60 cell line screen, 48 h

Row | SMILES | GI50 [µM] | TGI [µM]
1 | COc1ccc(-c2nc3ccc(-c4nnc(SCc5ccccc5)o4)cc3[nH]2)cc1OC | > 100 | > 100
2 | CCN1C(=O)N(CC)C2NNC(Sc3c(C(=O)O)c4ccccc4n(CC(C)C)c3=O)=NC21 (centres undefined) | 6.19 | > 100
